Results from paper PMC4336329 (PLoS ONE, 2015).
About 14,000 (4.5%) of roughly 310,000 compounds showed an effect of 50% or more. Effects have a minus sign here. The list shows a part of the results.

Target: human ether-à-go-go-related gene (hERG) potassium channel (human, UniProt Q12809)
Experiment: primary screen, population patch clamp on CHO cells stably expressing hERG
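Note: peak tail current of the secondary pulse compared with the same well before compound.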

Sequence of human ether-à-go-go-related gene (hERG) potassium channel (Q12809 whole entry, looked up): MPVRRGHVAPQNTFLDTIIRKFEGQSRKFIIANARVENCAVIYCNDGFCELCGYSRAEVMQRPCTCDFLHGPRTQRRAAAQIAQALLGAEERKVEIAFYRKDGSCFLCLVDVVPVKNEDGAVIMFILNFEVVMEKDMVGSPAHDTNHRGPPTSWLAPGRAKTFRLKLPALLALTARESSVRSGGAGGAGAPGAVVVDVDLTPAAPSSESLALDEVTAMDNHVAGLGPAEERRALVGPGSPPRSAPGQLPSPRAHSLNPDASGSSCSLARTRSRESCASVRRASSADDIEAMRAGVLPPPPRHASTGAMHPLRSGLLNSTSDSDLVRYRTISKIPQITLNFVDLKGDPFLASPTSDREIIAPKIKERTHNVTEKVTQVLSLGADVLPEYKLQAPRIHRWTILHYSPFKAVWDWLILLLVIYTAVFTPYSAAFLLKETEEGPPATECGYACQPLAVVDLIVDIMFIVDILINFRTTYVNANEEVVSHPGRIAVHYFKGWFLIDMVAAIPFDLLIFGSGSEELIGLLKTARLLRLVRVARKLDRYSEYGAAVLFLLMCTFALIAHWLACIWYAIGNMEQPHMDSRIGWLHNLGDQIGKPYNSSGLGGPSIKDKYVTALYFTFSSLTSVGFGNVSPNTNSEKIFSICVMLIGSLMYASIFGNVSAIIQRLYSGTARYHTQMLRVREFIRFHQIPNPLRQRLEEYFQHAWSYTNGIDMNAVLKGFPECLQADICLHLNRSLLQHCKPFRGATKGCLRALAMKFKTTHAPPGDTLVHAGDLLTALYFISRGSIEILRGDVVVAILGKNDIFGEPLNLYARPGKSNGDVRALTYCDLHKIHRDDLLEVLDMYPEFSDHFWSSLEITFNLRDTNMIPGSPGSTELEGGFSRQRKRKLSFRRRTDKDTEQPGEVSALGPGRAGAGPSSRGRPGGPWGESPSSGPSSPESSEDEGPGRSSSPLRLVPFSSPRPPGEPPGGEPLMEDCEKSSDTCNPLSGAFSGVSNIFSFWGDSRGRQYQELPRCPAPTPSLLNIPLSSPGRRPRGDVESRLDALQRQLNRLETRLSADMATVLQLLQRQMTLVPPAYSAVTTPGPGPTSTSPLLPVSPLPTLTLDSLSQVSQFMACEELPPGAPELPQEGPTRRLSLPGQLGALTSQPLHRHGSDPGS

Row | Compound | hERG current change (%, negative = inhibition) at 10uM
1 | Cc1cccc(Cl)c1OCCCn1ccnc1.O=C(O)C(=O)O | 1.28%
2 | O=C(COC(=O)CNC(=O)c1sc2ccccc2c1Cl)Nc1c(Cl)cc(Cl)cc1Cl | 15.6%
3 | CC[n+]1ccc(C)c2cc(SC(F)(F)F)ccc21.Cc1ccc(S(=O)(=O)[O-])cc1 | -7.26%
4 | CC(C)(C)C1CCc2c(sc(NC(=O)c3cc(C4CC4)on3)c2C#N)C1 (stereo not shown) | 10.1%
5 | CCOC(=O)C1=C(C)NC(=O)NC1C(C)C (stereo not shown) | -10.3%
6 | O=c1c2ccccc2nc(-c2ccccc2)n1-c1ccccc1 | -13.1%
7 | COc1ccc(C)cc1NC(=O)CSc1nnc(-c2ccco2)n1Cc1ccco1 | -12.8%
8 | CC(=O)c1ccc(N=c2scc(C)n2C(C)C)cc1 | -4.69%
9 | O=[N+]([O-])c1ccc(Nc2ccccc2F)nc1 | -2.22%
10 | CN(C(=O)CN1C(=O)S/C(=C\c2ccc(F)cc2)C1=O)C1CCS(=O)(=O)C1 (stereo not shown) | -34.6%
11 | Cc1ccc(S(=O)(=O)N2CCN(S(=O)(=O)c3ccccc3)C2c2ccc(N(C)C)cc2)cc1 (stereo not shown) | 11.5%
12 | COC(=O)CSc1nnc(-c2ccoc2C)n1-c1ccc(C)cc1 | -37%
13 | Cc1ccc(-c2nnc(CSc3nc4cc5c(cc4cc3C)OCO5)o2)cc1 | -1.74%
14 | CCC(C(=O)NC(C)(C)C)N(Cc1ccc(F)cc1)C(=O)c1snc(C(N)=O)c1N (stereo not shown) | 13.4%
15 | CCOC(=O)C1=NN(c2ccccc2)C(=O)C1 | 7.56%
16 | CCC(C)[C@@H](N)C(=O)N/N=C/c1cccc2nccnc12.Cl (stereo partly shown) | 1.69%
17 | COc1ccc2c(CC(=O)OCC(=O)c3ccccc3OC)coc2c1 | -5.39%
18 | Cc1cc(C)cc(N(C(=O)C(F)(F)F)C(C(=O)NC2CCCCC2)c2cccs2)c1 (stereo not shown) | -7.03%
19 | Cl.O=C(CN1CCOCC1)c1ccc(Br)cc1 | 18%
20 | Cc1ccc(-c2nn(C)c(=O)c3ccccc23)cc1CNC(=O)NC1CCCCC1 | -8.53%
21 | CC1(C)CC(=O)N(CC(=O)NCc2ccc(F)cc2)c2ccccc2S1(=O)=O | -5.26%
22 | Cc1nnc(NCCO)c2ccccc12 | 15.3%

Row | Compound | hERG current change (%, negative = inhibition) at 10uM
23 | COc1ccc(C2=NOC(Cn3c(Cc4ccc(Cl)cc4)nc4c3c(=O)n(C)c(=O)n4C)C2)cc1 (stereo not shown) | -22.1%
24 | COc1ccc2nc(SC(C)C(=O)NC3(C#N)CCCCC3)[nH]c2c1 (stereo not shown) | -20.1%
25 | COc1ccc(C(=O)NC(=S)Nc2ccc(N3CCCC3)cc2)cc1OC | 12.1%
26 | CCOc1ccc(C(=O)Nc2ccc(CN3CCOCC3)cc2)cc1Br | -46.6%
27 | O=C(O)c1ccc(/C=N/NC(=S)NC2CCCCC2)cc1 | 16.8%
28 | CCCn1c(C)cc(C(=O)COC(=O)c2nccnc2N)c1C | 6.39%
29 | CN(CCCC1CCCC1)C(=O)CC1C(=O)NCCN1Cc1cccc(F)c1F (stereo not shown) | 7.01%
30 | ON1C(c2ccc(Cl)cc2Cl)N(O)[C@H]2CCCC[C@H]21 (stereo partly shown) | -1.85%
31 | O=S(=O)(c1ccccc1)c1nc(-c2ccco2)oc1NCCCN1CCOCC1 | -6.01%
32 | C=C(C)CN(CC)C(=O)CSc1nc(O)cc(=O)n1C1CCCC1 | 29.4%
33 | Cc1ccc(S(=O)(=O)N(C)C)cc1NC(=O)COC(=O)c1sc2cc(Cl)ccc2c1Cl | -0.033%
34 | CC(=O)N/C(=C/c1ccc(OS(=O)(=O)c2ccc(C)cc2)cc1)C(=O)NCCO | -10.2%
35 | O=C(NNS(=O)(=O)c1ccc(F)cc1)c1cnn(-c2ccccc2)c1C(F)(F)F | -1.59%
36 | CCOC(=O)c1nnn(CC(=O)Nc2cccc(Cl)c2C)c1C(=O)OCC | 4.51%
37 | O=c1[nH][nH]c(C(F)(F)F)c1C=NCc1cccc(Cl)c1 | 6.25%
38 | O=S(=O)(c1ccc(Br)cc1)n1ccc2ccccc21 | 0.941%
39 | O=C(COC(=O)c1ccc2c(c1)S(=O)(=O)N=C1CCCCCN12)NCc1cccs1 | 6.76%
40 | COc1ccc2nc(NC(=O)CCc3nc(C4=CCN(C)CC4)no3)sc2c1 | -13.5%
41 | COCCNC(=O)/C(C#N)=C/c1ccc(O)c([N+](=O)[O-])c1 | 14.7%
42 | CC(=O)c1c(C)oc2ccc(N(C(C)=O)S(=O)(=O)c3cccc4cccnc34)cc12 | -14.1%
43 | CN(C)c1nccc(Nc2ccccc2)c1C#N | -13%
44 | COc1ccc(S(=O)(=O)N2CCC(C(=O)O)(c3ccccc3)CC2)cc1 | 19.8%

Row | Compound | hERG current change (%, negative = inhibition) at 10uM
45 | CCOc1ccc(NC(=O)CN(C)CC(=O)Nc2ccccc2C#N)cc1OCC | 0.268%
46 | CCN(c1ccccc1)S(=O)(=O)c1ccc(NN)nc1 | -12.2%
47 | CC(C)OC(=O)C1C(=O)NC2(C)CC1c1ccccc1O2 (stereo not shown) | 18%
48 | COc1ccc(NC(=O)CN2C(=O)COc3ccc(S(=O)(=O)N4CCCCCC4)cc32)cc1 | 18.9%
49 | COc1ccc2c(C)cc(SCn3nnc4ccccc4c3=O)nc2c1 | 4.36%
50 | Cc1ccccc1NC(=O)Cn1nnc(-c2ccc(CN3CCC(C)CC3)cc2)n1 | -5.75%
51 | N#Cc1ccccc1Cn1c(=O)n(CCCC(=O)NCc2ccc3c(c2)OCO3)c(=O)c2ccccc21 | -7.13%
52 | CC(=O)Nc1ccc2nsnc2c1 | 16%
53 | CCCCCCCc1ccc(C2NC(=S)NC3=C2C(=O)c2ccccc23)cc1 (stereo not shown) | 8.78%
54 | Cc1ccc(C)n1-c1ccc(-n2cnnn2)cc1 | -5%
55 | Cl.O=C(CN1CCCC(O)C1)N1c2ccccc2Sc2ccc(C(F)(F)F)cc21 (stereo not shown) | -7.16%
56 | CCCOc1c(OC)cccc1C1CC(=O)Nc2cc(OC)c(OC)c(OC)c21 (stereo not shown) | -5.03%
57 | COc1ccc(NC(=O)CC2SC(=NCc3ccccc3OC)NC2=O)cc1 (stereo not shown) | 8.42%
58 | O=c1[nH]c(N/N=C/c2ccccc2Br)nnc1-c1ccccc1 | -3.18%
59 | Br.CCOC(=O)CCCc1sc(N)nc1-c1[nH]c(=O)[nH]c1C | 16.8%
60 | CCCSc1nc(N2CCCC2)c2c(c1C#N)CC(C)(C)OC2 | 11.3%
61 | CCOC(=O)[C@@H]1[C@H]2COc3ccccc3[C@H]2N2C(=O)N(c3cccc(Cl)c3)C(=O)[C@@]12C | 20.6%
62 | Cc1ccc(CS(=O)(=O)CCC(=O)NCc2ccccc2Cl)cc1 | 12.3%
63 | O=C1CSc2ccc(S(=O)(=O)CCC(=O)NC3CCCCC3)cc2N1 | 12.8%
64 | Cc1ccc2nc(SC(C)C(=O)NCc3ccco3)[nH]c2c1 (stereo not shown) | 6.29%
65 | COc1ccccc1N(CC(=O)Nc1ccccc1C(=O)NCC(C)C)S(C)(=O)=O | -8.84%
66 | CCOc1ccccc1NC(=O)CSc1nnc(-c2cnccn2)n1C | -22.7%

Row | Compound | hERG current change (%, negative = inhibition) at 10uM
67 | COc1ccc(NC(=O)CN2C(=O)C(C)Oc3ccccc32)c(OC)c1 (stereo not shown) | -10.4%
68 | Nn1c(Cc2cccc3ccccc23)nnc1SC1CCOC1=O (stereo not shown) | -0.158%
69 | O=C(O)CSc1ncnc2sc3c(c12)CCCC3 | 14.9%
70 | CC(=O)NC(C)c1nc2ccccc2n1CC(=O)N1C(C)CCCC1C (stereo not shown) | 16.1%
71 | COCCn1nnnc1C(c1ccc(OC)c(OC)c1)N1CCc2ccccc21 (stereo not shown) | -1.72%
72 | O=C(C1CN(S(=O)(=O)c2ccccc2)CCN1S(=O)(=O)c1ccccc1)N1CCCCCC1 (stereo not shown) | 2.61%
73 | COc1cccc(C(=O)Cn2c(N3CCCCC3)nc3c2c(=O)n(C)c(=O)n3C)c1 | 12.6%
74 | Cc1ccc2nc(-c3ccncc3)[nH]c2c1 | 16.8%
75 | CCOc1ccc(CNC(=S)Nc2ccccc2)cc1Cl | 13%
76 | CC(=O)Nc1nc(=S)ss1 | 21.2%
77 | O=C(Nc1cc(SCC(O)CO)cc([N+](=O)[O-])c1)c1ccc(-n2cnnn2)cc1 (stereo not shown) | 20.9%
78 | CC(OC(=O)CN1C(=O)NC2(CCCC2)C1=O)C(=O)Nc1cccc(Cl)c1 (stereo not shown) | -15.3%
79 | CCCCN1C(=O)/C(=C(/C#N)C(N)=O)c2ccccc21 | 24.3%
80 | CC(=O)NC(CC(=O)OCC(=O)Nc1ccc2c(c1)OCO2)c1ccccc1 (stereo not shown) | 16.9%
81 | CCCNC(=O)CN1CCN(c2cc3ccccc3c(Cl)n2)CC1 | -48.2%
82 | O=C(CC(c1ccccc1)c1ccccc1O)NCc1ccccc1Cl (stereo not shown) | -1.24%
83 | COc1cccc(N2CCN(CC(=O)Nc3nc(C)c(C(=O)N(C)C)s3)CC2)c1 | 8.42%
84 | COC(=O)CNC(=O)C1CCN(S(=O)(=O)c2cccc3nsnc23)CC1 | 20.2%
85 | CC(=O)Nc1ccc(SC[C@H](Cc2ccccc2)N2CCN(CCc3ccccc3)CCC2=O)cc1 | -55.9%
86 | COc1ccc(NC(=S)Nc2ccc(OC(F)F)cc2)cn1 | -25.8%
87 | Cc1onc(-c2ccccc2Cl)c1C(=O)Nc1cccnc1 | -6.11%
88 | COc1ccc(N=C2S/C(=C\c3cccs3)C(=O)N2CC(C)C)cc1 | -6.62%
